According to publication PMC4242493:
The list shows a part of the results. The list includes weakly bound sequences.

The sequences below were run against MaxL homodimer (UniProt P61244) (assay: universal protein-binding microarray (PBM)). Settings: PBS-based mixture, 10 nM His-tagged protein dimer, 2% milk, 200 ng/uL BSA, 50 ng/uL salmon testes DNA, 0.02% TX-100; detection with Alexa 488 anti-His …; high values mean tight binding; most listed sequences are background and not binding sites; double strand, one strand shown.
UniProt P61244, sequence (P61244 whole entry): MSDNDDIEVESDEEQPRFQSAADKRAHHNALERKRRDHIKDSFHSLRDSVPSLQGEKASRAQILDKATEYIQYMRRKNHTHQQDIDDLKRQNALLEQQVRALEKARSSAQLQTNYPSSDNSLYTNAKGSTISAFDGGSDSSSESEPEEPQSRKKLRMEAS
With TAAAATAA the binding signal (normalized occupancy) was 0.0771. With ATCTCCAT the binding signal (normalized occupancy) was 0.0864. With AAGAGGGC the binding signal (normalized occupancy) was 0.0738. For CGTGCCTC, the binding signal (normalized occupancy) was 0.0857. For TCTCGGCA, the binding signal (normalized occupancy) was 0.0689. Work on TCTCACAA yielded a binding signal (normalized occupancy) of 0.0786. CTCAAAGC showed a binding signal (normalized occupancy) of 0.0666. Work on ATAGAAAC yielded a binding signal (normalized occupancy) of 0.0799. GGTCCCCA showed a binding signal (normalized occupancy) of 0.0707. Sequence GGCTGACA has a binding signal (normalized occupancy) of 0.076. For GACGAAAA, the binding signal (normalized occupancy) was 0.0714. Sequence AATTCAGA has a binding signal (normalized occupancy) of 0.0688. In the case of AGCTACAT, the binding signal (normalized occupancy) is reported as 0.0756. Sequence AGTGACAG has a binding signal (normalized occupancy) of 0.0692. With CACTTTCG the binding signal (normalized occupancy) was 0.0732. With GCAGACAA the binding signal (normalized occupancy) was 0.0765. For CCGATGCA, the binding signal (normalized occupancy) was 0.0794. GACTTGCA gave a binding signal (normalized occupancy) of 0.0709. AACCCTAT showed a binding signal (normalized occupancy) of 0.0781. Work on AACATTGT yielded a binding signal (normalized occupancy) of 0.0788. With ACCGATGC the binding signal (normalized occupancy) was 0.0751. AGTGCAAT showed a binding signal (normalized occupancy) of 0.0754. CGAGCTCG showed a binding signal (normalized occupancy) of 0.0651. In the case of CTACATCA, the binding signal (normalized occupancy) is reported as 0.0774. ACCAGGAA showed a binding signal (normalized occupancy) of 0.0703. With CTCCTGAC the binding signal (normalized occupancy) was 0.077. ACGCGCGG showed a binding signal (normalized occupancy) of 0.0929. Sequence GTCAGAAA has a binding signal (normalized occupancy) of 0.0761. For CTCCCGTC, the binding signal (normalized occupancy) was 0.0706. Work on GAATATTC yielded a binding signal (normalized occupancy) of 0.0728. Sequence GGGTAGAC has a binding signal (normalized occupancy) of 0.0722. ATTCCTGA showed a binding signal (normalized occupancy) of 0.075. In the case of ACACCAAG, the binding signal (normalized occupancy) is reported as 0.0798. AGAATCTG was tested, and the binding signal (normalized occupancy) was 0.0763. AAAAGAAG gave a binding signal (normalized occupancy) of 0.0697. GACGGCTC showed a binding signal (normalized occupancy) of 0.0688. In the case of CTGTCGGA, the binding signal (normalized occupancy) is reported as 0.073. Sequence CTATGCAG has a binding signal (normalized occupancy) of 0.0757. For ACAACTAC, the binding signal (normalized occupancy) was 0.0742. AGTATTTA was tested, and the binding signal (normalized occupancy) was 0.0747. ATCGCGCC showed a binding signal (normalized occupancy) of 0.0698. CCACTCGC was tested, and the binding signal (normalized occupancy) was 0.0812. ACGGGGTG was tested, and the binding signal (normalized occupancy) was 0.0805. For CGTTCTTC, the binding signal (normalized occupancy) was 0.0759. With TACTCCGA the binding signal (normalized occupancy) was 0.0777. Work on CCCTAAGA yielded a binding signal (normalized occupancy) of 0.0711. In the case of GCTCTAAC, the binding signal (normalized occupancy) is reported as 0.0729. Sequence CCGGCAAA has a binding signal (normalized occupancy) of 0.067. AAGACTAT showed a binding signal (normalized occupancy) of 0.0779. In the case of ACTACTCT, the binding signal (normalized occupancy) is reported as 0.0769. GCCGGGAC gave a binding signal (normalized occupancy) of 0.0616. With ACCTCACT the binding signal (normalized occupancy) was 0.0781. AAATCGCG was tested, and the binding signal (normalized occupancy) was 0.0713. Work on CCGCACCG yielded a binding signal (normalized occupancy) of 0.0752. For ACTGGTGG, the binding signal (normalized occupancy) was 0.0746. For ACAAAACC, the binding signal (normalized occupancy) was 0.0746. Work on CCCAAGAG yielded a binding signal (normalized occupancy) of 0.0686. In the case of AGCCGCGA, the binding signal (normalized occupancy) is reported as 0.0669. AGAGGCAG was tested, and the binding signal (normalized occupancy) was 0.075. With ACACCGTC the binding signal (normalized occupancy) was 0.0702. Sequence ATGAAGGA has a binding signal (normalized occupancy) of 0.0797. For TAAGTTAA, the binding signal (normalized occupancy) was 0.0772. Sequence CCTCATTA has a binding signal (normalized occupancy) of 0.0836. TAGCCTCA showed a binding signal (normalized occupancy) of 0.0748. Work on ATAATAAC yielded a binding signal (normalized occupancy) of 0.082. With GAGACCCA the binding signal (normalized occupancy) was 0.0745. ACAGGGAA was tested, and the binding signal (normalized occupancy) was 0.0743. In the case of GACCGGCA, the binding signal (normalized occupancy) is reported as 0.0692. ACGTAAGG gave a binding signal (normalized occupancy) of 0.073. Sequence AGGGGAGG has a binding signal (normalized occupancy) of 0.0793. Sequence GCTAGTGA has a binding signal (normalized occupancy) of 0.0759. Work on GTTTATAA yielded a binding signal (normalized occupancy) of 0.0757. For GTTCCACA, the binding signal (normalized occupancy) was 0.0784. In the case of CGCATGCG, the binding signal (normalized occupancy) is reported as 0.133. With CTGACAAA the binding signal (normalized occupancy) was 0.0791. ACTGACGC showed a binding signal (normalized occupancy) of 0.0698. ACATGCTG gave a binding signal (normalized occupancy) of 0.124. Work on GTGACACA yielded a binding signal (normalized occupancy) of 0.0783. With ACGTTGTG the binding signal (normalized occupancy) was 0.0787. ACATGGCG was tested, and the binding signal (normalized occupancy) was 0.098. Work on CCAAAAAG yielded a binding signal (normalized occupancy) of 0.0702. ACCTCAGA showed a binding signal (normalized occupancy) of 0.0784. Sequence CCGCCCGC has a binding signal (normalized occupancy) of 0.0678. With ATCGCCCG the binding signal (normalized occupancy) was 0.073. TTTGAAAA showed a binding signal (normalized occupancy) of 0.0717. For CCAGGGCC, the binding signal (normalized occupancy) was 0.0636. CCAATGTC showed a binding signal (normalized occupancy) of 0.0732. Work on CGCGACTC yielded a binding signal (normalized occupancy) of 0.0699. In the case of GCAAGCAC, the binding signal (normalized occupancy) is reported as 0.0718. CTGCGAAG showed a binding signal (normalized occupancy) of 0.0641. In the case of GACATAGC, the binding signal (normalized occupancy) is reported as 0.077. Sequence ATGCGACG has a binding signal (normalized occupancy) of 0.0739. With AGAGTACC the binding signal (normalized occupancy) was 0.0751. In the case of CGCATGTC, the binding signal (normalized occupancy) is reported as 0.105. Sequence CGCTTCAG has a binding signal (normalized occupancy) of 0.0737. Work on CGGACAGA yielded a binding signal (normalized occupancy) of 0.0651. CAATAAGC gave a binding signal (normalized occupancy) of 0.0705. Sequence AGGACGCA has a binding signal (normalized occupancy) of 0.0749. In the case of GCTTAACC, the binding signal (normalized occupancy) is reported as 0.0694. Sequence ATGCGTCG has a binding signal (normalized occupancy) of 0.0835. TCGTTAAA gave a binding signal (normalized occupancy) of 0.0773. CGGGACCC was tested, and the binding signal (normalized occupancy) was 0.076. For AGCGAACC, the binding signal (normalized occupancy) was 0.0722. With AGGCTGTC the binding signal (normalized occupancy) was 0.0715. CTGACACC gave a binding signal (normalized occupancy) of 0.0794. For CGCCAACA, the binding signal (normalized occupancy) was 0.0741. CATTATCC gave a binding signal (normalized occupancy) of 0.0847. ACCAGCCC was tested, and the binding signal (normalized occupancy) was 0.0728. In the case of CTGTTAGA, the binding signal (normalized occupancy) is reported as 0.0767. Sequence GTGACTAA has a binding signal (normalized occupancy) of 0.0791. GCTGGCAA gave a binding signal (normalized occupancy) of 0.0704. For CAACAGGC, the binding signal (normalized occupancy) was 0.0712. Work on AAGCAGTG yielded a binding signal (normalized occupancy) of 0.0725. Work on CTGCCAAA yielded a binding signal (normalized occupancy) of 0.0702. With CATCCTCG the binding signal (normalized occupancy) was 0.0772. Sequence ACTCTACC has a binding signal (normalized occupancy) of 0.0729. In the case of AGAGAAGC, the binding signal (normalized occupancy) is reported as 0.0702. ATACTCTG was tested, and the binding signal (normalized occupancy) was 0.0814. Work on AAGCGAAC yielded a binding signal (normalized occupancy) of 0.0692. AGAATTCG was tested, and the binding signal (normalized occupancy) was 0.073. GCTCATTA gave a binding signal (normalized occupancy) of 0.0768. ACACCCGG showed a binding signal (normalized occupancy) of 0.0767. Sequence ATGTTGTA has a binding signal (normalized occupancy) of 0.082. CAAACAGA was tested, and the binding signal (normalized occupancy) was 0.0744. In the case of ATTGAGGA, the binding signal (normalized occupancy) is reported as 0.0797. Work on GGTACCGA yielded a binding signal (normalized occupancy) of 0.0679. Sequence TCATGGGA has a binding signal (normalized occupancy) of 0.0807. With CCTTCCCC the binding signal (normalized occupancy) was 0.0759. In the case of AACGGGCC, the binding signal (normalized occupancy) is reported as 0.0682. With ATTTCTGC the binding signal (normalized occupancy) was 0.0742. Work on GGATCCAC yielded a binding signal (normalized occupancy) of 0.0765. ACAAATAC was tested, and the binding signal (normalized occupancy) was 0.0725. GATGCGGA was tested, and the binding signal (normalized occupancy) was 0.0791. Work on GCCACTGA yielded a binding signal (normalized occupancy) of 0.0687. Work on AATTCACA yielded a binding signal (normalized occupancy) of 0.0775. CCTCATCC gave a binding signal (normalized occupancy) of 0.0759. With AACTTCCG the binding signal (normalized occupancy) was 0.0736. Sequence GGCCGGGA has a binding signal (normalized occupancy) of 0.0668. Work on GGAAGCCC yielded a binding signal (normalized occupancy) of 0.0691. CTATAATA was tested, and the binding signal (normalized occupancy) was 0.0793. Work on AAGATCTC yielded a binding signal (normalized occupancy) of 0.0783. For GCGGGAAC, the binding signal (normalized occupancy) was 0.0701. For GTTAGGTA, the binding signal (normalized occupancy) was 0.0755. Sequence TAGTTAGA has a binding signal (normalized occupancy) of 0.0768. CGGAACCA showed a binding signal (normalized occupancy) of 0.0712. In the case of AGCAGGCC, the binding signal (normalized occupancy) is reported as 0.0727. In the case of GGCTATTA, the binding signal (normalized occupancy) is reported as 0.0759. CCACCCGA was tested, and the binding signal (normalized occupancy) was 0.0767. For CGCCCGAC, the binding signal (normalized occupancy) was 0.0679. For AGCTATTC, the binding signal (normalized occupancy) was 0.0709. CCAAATGG showed a binding signal (normalized occupancy) of 0.0756. For GCTTTCCC, the binding signal (normalized occupancy) was 0.0669. ATTAGCAC was tested, and the binding signal (normalized occupancy) was 0.076. With CCCGAGAC the binding signal (normalized occupancy) was 0.0697. With CGCCGTAC the binding signal (normalized occupancy) was 0.0716. Work on GCAGCCCA yielded a binding signal (normalized occupancy) of 0.0744. CCAATTTA was tested, and the binding signal (normalized occupancy) was 0.0781. Sequence TCGACCCA has a binding signal (normalized occupancy) of 0.0726. Work on AAAGTTTC yielded a binding signal (normalized occupancy) of 0.0721. Sequence GGAGCACA has a binding signal (normalized occupancy) of 0.0826. ACGCTACC gave a binding signal (normalized occupancy) of 0.079. Sequence CAAAATCG has a binding signal (normalized occupancy) of 0.0693. ACAGTCTA showed a binding signal (normalized occupancy) of 0.0732. CTAACGAA showed a binding signal (normalized occupancy) of 0.0676. Sequence CGGCGAGC has a binding signal (normalized occupancy) of 0.069. CTAGGCTC gave a binding signal (normalized occupancy) of 0.0662. Work on AATTCAGT yielded a binding signal (normalized occupancy) of 0.0721. Work on AGGTGCCA yielded a binding signal (normalized occupancy) of 0.0807. With GTACAGAA the binding signal (normalized occupancy) was 0.0732. For CTCAAACA, the binding signal (normalized occupancy) was 0.0768. AAGTTGAT gave a binding signal (normalized occupancy) of 0.0742. For CCCTTAGA, the binding signal (normalized occupancy) was 0.0721.
